# The list shows a part of the results.
# How the values were obtained:
# Test in all cases: glycan array binding signal (z-score within array); higher = stronger binding
# Settings in all cases: glycan notation: IUPAC condensed, linker removed
# Man(a1-6)Man = target: Man(a1-6)Man
# How it was run: (§1)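 Columns mapping to the same glycan were averaged after glycan names were converted to IUPAC-condensed notation. The data come from 3228 arrays in the Consortium for Functional Glycomics database, limited to those with an available protein sequence. Binding is reported as a within-array Z-score averaged across arrays of one protein sequence and across linkers.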
# Man(b1-4)GlcNAc = target: Man(b1-4)GlcNAc
# How it was run: as §1
# MurNAc(b1-4)GlcNAc = target: MurNAc(b1-4)GlcNAc
# How it was run: as §1
# Neu5Ac(a2-3)Gal = target: Neu5Ac(a2-3)Gal
# How it was run: as §1
# [1] = target: Neu5Ac(a2-3)Gal(b1-3)GalNAc
# How it was run: as §1
# [2] = target: Neu5Ac(a2-3)Gal(b1-3)GalNAc(b1-3)Gal(a1-4)Gal(b1-4)Glc
# How it was run: as §1
# [3] = target: Neu5Ac(a2-3)Gal(b1-3)GalNAc(b1-4)[Neu5Ac(a2-3)]Gal(b1-4)Glc
# How it was run: as §1
# [4] = target: Neu5Ac(a2-3)Gal(b1-3)GalNAc(b1-4)[Neu5Ac(a2-8)Neu5Ac(a2-3)]Gal(b1-4)Glc
# How it was run: as §1
# [5] = target: Neu5Ac(a2-3)Gal(b1-3)GalNAc6S
# How it was run: as §1
# [6] = target: Neu5Ac(a2-3)Gal(b1-3)GlcNAc
# How it was run: as §1
# [7] = target: Neu5Ac(a2-3)Gal(b1-3)GlcNAc(b1-2)Man
# How it was run: as §1
# [8] = target: Neu5Ac(a2-3)Gal(b1-3)GlcNAc(b1-2)Man(a1-3)[GlcNAc(b1-4)][Neu5Ac(a2-3)Gal(b1-3)GlcNAc(b1-2)Man(a1-6)]Man(b1-4)GlcNAc(b1-4)GlcNAc
# How it was run: as §1
# [9] = target: Neu5Ac(a2-3)Gal(b1-3)GlcNAc(b1-2)Man(a1-3)[Neu5Ac(a2-3)Gal(b1-3)GlcNAc(b1-2)Man(a1-6)]Man(b1-4)GlcNAc(b1-4)GlcNAc
# How it was run: as §1
# [10] = target: Neu5Ac(a2-3)Gal(b1-3)GlcNAc(b1-3)Gal(b1-3)GlcNAc
# How it was run: as §1
# [11] = target: Neu5Ac(a2-3)Gal(b1-3)GlcNAc(b1-3)Gal(b1-4)GlcNAc
# How it was run: as §1
# [12] = target: Neu5Ac(a2-3)Gal(b1-3)GlcNAc(b1-3)GalNAc
# How it was run: as §1
# [13] = target: Neu5Ac(a2-3)Gal(b1-3)GlcNAc(b1-4)Gal(b1-4)Glc
# How it was run: as §1
# [14] = target: Neu5Ac(a2-3)Gal(b1-3)GlcNAc(b1-6)GalNAc
# How it was run: as §1
# [15] = target: Neu5Ac(a2-3)Gal(b1-3)GlcNAc6S
# How it was run: as §1
# [16] = target: Neu5Ac(a2-3)Gal(b1-3)[Fuc(a1-4)]GlcNAc
# How it was run: as §1
# [17] = target: Neu5Ac(a2-3)Gal(b1-3)[Fuc(a1-4)]GlcNAc(b1-3)Gal(b1-3)[Fuc(a1-4)]GlcNAc
# How it was run: as §1
# [18] = target: Neu5Ac(a2-3)Gal(b1-3)[Fuc(a1-4)]GlcNAc(b1-3)Gal(b1-4)[Fuc(a1-3)]GlcNAc
# How it was run: as §1
# [19] = target: Neu5Ac(a2-3)Gal(b1-3)[GlcNAc(b1-6)]GalNAc
# How it was run: as §1
# [20] = target: Neu5Ac(a2-3)Gal(b1-3)[Neu5Ac(a2-3)Gal(b1-4)]GlcNAc
# How it was run: as §1
# [21] = target: Neu5Ac(a2-3)Gal(b1-3)[Neu5Ac(a2-6)]GalNAc
# How it was run: as §1
# [22] = target: Neu5Ac(a2-3)Gal(b1-3)[Neu5Ac(a2-6)]GlcNAc(b1-3)[Fuc(a1-3)[Gal(b1-4)]GlcNAc(b1-6)]Gal(b1-4)Glc
# How it was run: as §1
# [23] = target: Neu5Ac(a2-3)Gal(b1-3)]Neu5Ac(a2-3)Gal(b1-4)]GlcNAc
# How it was run: as §1
# Neu5Ac(a2-3)Gal(b1-4)Glc = target: Neu5Ac(a2-3)Gal(b1-4)Glc
# How it was run: as §1
# [24] = target: Neu5Ac(a2-3)Gal(b1-4)GlcNAc
# How it was run: as §1
# [25] = target: Neu5Ac(a2-3)Gal(b1-4)GlcNAc(b1-2)Man
# How it was run: as §1
# [26] = target: Neu5Ac(a2-3)Gal(b1-4)GlcNAc(b1-2)Man(a1-3)[GlcNAc(b1-2)Man(b1-4)GlcNAc(b1-2)Man(a1-6)]Man(b1-4)GlcNAc(b1-4)GlcNAc
# How it was run: as §1
# [27] = target: Neu5Ac(a2-3)Gal(b1-4)GlcNAc(b1-2)Man(a1-3)[GlcNAc(b1-4)][Neu5Ac(a2-3)Gal(b1-4)GlcNAc(b1-2)Man(a1-6)]Man(b1-4)GlcNAc(b1-4)GlcNAc
# How it was run: as §1
# [28] = target: Neu5Ac(a2-3)Gal(b1-4)GlcNAc(b1-2)Man(a1-3)[Neu5Ac(a2-3)Gal(b1-4)GlcNAc(b1-2)Man(a1-6)]Man(b1-4)GlcNAc(b1-4)GlcNAc
# How it was run: as §1
# [29] = target: Neu5Ac(a2-3)Gal(b1-4)GlcNAc(b1-2)Man(a1-3)[Neu5Ac(a2-3)Gal(b1-4)GlcNAc(b1-2)Man(a1-6)]Man(b1-4)GlcNAc(b1-4)[Fuc(a1-6)]GlcNAc
# How it was run: as §1
# [30] = target: Neu5Ac(a2-3)Gal(b1-4)GlcNAc(b1-2)Man(a1-3)[Neu5Ac(a2-6)Gal(b1-4)GlcNAc(b1-2)Man(a1-6)]Man(b1-4)GlcNAc(b1-4)GlcNAc
# How it was run: as §1
# [31] = target: Neu5Ac(a2-3)Gal(b1-4)GlcNAc(b1-2)[Neu5Ac(a2-3)Gal(b1-4)GlcNAc(b1-4)]Man(a1-3)[GlcNAc(b1-4)][Neu5Ac(a2-3)Gal(b1-4)GlcNAc(b1-2)[Neu5Ac(a2-3)Gal(b1-4)GlcNAc(b1-6)]Man(a1-6)]Man(b1-4)GlcNAc(b1-4)GlcNAc
# How it was run: as §1
binder,measurement,setting,value
"Gal 1 (Mus musculus), P16045 (protein) MACGLVASNLNLKPGECLKVRGEVASDAKSFVLNLGKDSNNLCLHFNPRFNAHGDANTIVCNTKEDGTWGTEHREPAFPFQPGSITEVCITFDQADLTIKLPDGHEFKFPNRLNMEAINYMAADGDFKIKCVAFE",glycan array binding signal (z-score),Man(a1-6)Man,0.23
same,glycan array binding signal (z-score),Man(b1-4)GlcNAc,-0.381
same,glycan array binding signal (z-score),MurNAc(b1-4)GlcNAc,-0.408
same,glycan array binding signal (z-score),Neu5Ac(a2-3)Gal,-0.298
same,glycan array binding signal (z-score),[1],-0.319
same,glycan array binding signal (z-score),[2],-0.091
same,glycan array binding signal (z-score),[3],-0.41
same,glycan array binding signal (z-score),[4],-0.143
same,glycan array binding signal (z-score),[5],-0.145
same,glycan array binding signal (z-score),[6],-0.215
same,glycan array binding signal (z-score),[7],0.627
same,glycan array binding signal (z-score),[8],-0.114
same,glycan array binding signal (z-score),[9],-0.124
same,glycan array binding signal (z-score),[10],0.189
same,glycan array binding signal (z-score),[11],0.036
same,glycan array binding signal (z-score),[12],0.06
same,glycan array binding signal (z-score),[13],-0.25
same,glycan array binding signal (z-score),[14],-0.225
same,glycan array binding signal (z-score),[15],-0.1
same,glycan array binding signal (z-score),[16],-0.322
same,glycan array binding signal (z-score),[17],-0.129
same,glycan array binding signal (z-score),[18],-0.174
same,glycan array binding signal (z-score),[19],-0.308
same,glycan array binding signal (z-score),[20],0.068
same,glycan array binding signal (z-score),[21],-0.244
same,glycan array binding signal (z-score),[22],-0.313
same,glycan array binding signal (z-score),[23],-0.057
same,glycan array binding signal (z-score),Neu5Ac(a2-3)Gal(b1-4)Glc,-0.219
same,glycan array binding signal (z-score),[24],-0.256
same,glycan array binding signal (z-score),[25],0.309
same,glycan array binding signal (z-score),[26],-0.069
same,glycan array binding signal (z-score),[27],0.02
same,glycan array binding signal (z-score),[28],1.51
same,glycan array binding signal (z-score),[29],0.859
same,glycan array binding signal (z-score),[30],-0.138
same,glycan array binding signal (z-score),[31],0.94

# Reference: the supplement of paper PMC8728848
